Measured values published in PubChem BioAssay AID1671188 (National Center for Advancing Translational Sciences (NCATS), 2021).
Among all 100,000 compounds or so, about 250 (0.25%) were called active. Inconclusive results, whose numbers are uncertain, are shown with a selection of clear calls. Calls come from the whole dose curve; as a rule, active = well fitted inhibition curve with a large enough effect; inconclusive = small, poorly fitted or top-dose-only effect; inactive = flat fitted curve, though single readings scatter. No potency is given beside an inconclusive call; the fits are too rough.

molecular target: Alanine aminotransferase 2 (Homo sapiens) (UniProt Q8TD30); test: Primary qHTS assay for inhibitors of Glutamate pyruvate transaminase 2 (GPT2); conditions: Recombinant GPT2, coupled pyruvate oxidase/HRP Amplex Red fluorescence; activity change, negative = inhibition: at 57.7 µM (top of the series) unless noted; series mostly up to 57.7 µM; note: nearly all actives have a fitted effect of over 60% in size
How it was run: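 Fluorescence of coupled pyruvate oxidase/HRP/Amplex Red system (50uM Amplex, 30 min, dark) reports pyruvate formed by GPT2. Enzyme reaction: 10ng/uL GPT2, 2mM L-alanine, 250uM a-KG, 30 min room temperature, pH 7.5; 50uM AOA control.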
% is set by controls: 0 for no effect and ±100 for the full control effect; potency is the fitted concentration of half-maximal effect; tags give direction and shape of the fitted curve.

Chain of UniProt Q8TD30 (Q8TD30 whole entry, looked up): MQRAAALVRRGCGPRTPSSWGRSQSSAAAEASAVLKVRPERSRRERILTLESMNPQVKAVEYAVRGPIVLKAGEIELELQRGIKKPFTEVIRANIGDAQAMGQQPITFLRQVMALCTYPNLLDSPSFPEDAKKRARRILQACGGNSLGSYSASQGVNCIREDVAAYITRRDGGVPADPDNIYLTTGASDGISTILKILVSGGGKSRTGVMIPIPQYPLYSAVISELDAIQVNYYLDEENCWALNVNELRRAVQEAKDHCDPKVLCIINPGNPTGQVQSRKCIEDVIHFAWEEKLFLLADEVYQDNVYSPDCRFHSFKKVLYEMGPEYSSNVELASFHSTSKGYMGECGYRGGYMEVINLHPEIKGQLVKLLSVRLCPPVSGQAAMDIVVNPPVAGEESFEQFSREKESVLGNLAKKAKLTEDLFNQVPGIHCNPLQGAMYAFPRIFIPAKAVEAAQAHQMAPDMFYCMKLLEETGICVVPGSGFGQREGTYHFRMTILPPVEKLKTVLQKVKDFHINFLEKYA

SMILES	Potency	activity change, negative = inhibition
CC1(COc2ccccc2)COc2ccc(C(=O)N3CCN(c4ccccn4)CC3)cc2N1 (configuration not stated)	inactive	–
CC(C)NC(=O)c1cn2cc(-c3cccnc3)sc2n1	inactive	–
O=C(c1ccc(Cl)cc1)N1CC(CO)C2(CCNCC2)C1 (configuration not stated)	inconclusive [inhibitor, partial curve, poor fit]	–
COc1ccc(NC(=O)[C@@H]2C[C@H](c3ccc(F)cc3)N(Cc3csc(C)n3)C2)cc1OC	inactive	–
CN(C)c1nc(-c2ccncc2)nc2c1CCN(C(=O)c1cc(=O)[nH][nH]1)C2	inconclusive [inhibitor, partial curve, poor fit]	–
CCNC(=O)NC[C@H]1O[C@H](Cc2cc(-c3ccc(F)cc3)on2)CC[C@@H]1O	inconclusive [inhibitor, single point]	–
COCC(=O)Nc1ccc2c(c1)CN(CCc1ccccc1)C(=O)C(C)O2 (configuration not stated)	inactive	–
O=C(C1CCCN1C(=O)Nc1ccccc1)N1CCC(N2CCCC2=O)CC1 (configuration not stated)	inconclusive [inhibitor, full curve, poor fit]	–
Cc1nncn1C1CCN(S(=O)(=O)c2ccc(F)c(Cl)c2)CC1	inactive	–
OCCC#Cc1nc(-c2ccc(F)cc2)c(-c2ccncc2)n1CCCc1ccccc1	–	inconclusive: -30.5% [inhibitor]
Cc1ccc(-n2cccc2CC(=O)N2CCCC2)cc1	inactive	–
COc1ccc2cc(-c3cc(-c4cc(Cl)cc(Cl)c4)nn3C(C)c3ccc(C(=O)NCCC(=O)O)cc3)ccc2c1 (configuration not stated)	inconclusive [inhibitor, full curve, poor fit]	–
COCCn1ncc(N2CCCC(CC(=O)Nc3ccc(Cl)cc3)C2)cc1=O (configuration not stated)	inactive	–
Cc1ccccc1N1Cc2c(NCCCc3ccccc3)ncnc2N(C)CC1=O	inconclusive [inhibitor, single point]	–
CC(=O)Nc1cccc(-c2cn(C)c(=O)n3cc(COc4ccccc4)nc23)c1	inactive	–
O=C(O)Cc1ccc(O)c(O)c1	inconclusive [inhibitor, full curve, poor fit]	–
CN(C)C(=O)C1CN(C(=O)CCC(=O)c2ccc(F)cc2)CC12CCOCC2 (configuration not stated)	inactive	–
Nc1ccccc1N	inconclusive [inhibitor, partial curve, poor fit]	–
COC(=O)[C@H](NC(=O)[C@@H]1[C@@H](NC(=O)Nc2ccc(F)cc2F)CCN1C(=O)c1cccn1C)C(C)C	inconclusive [inhibitor, single point]	–
COc1ccc(CCc2nc3nccc(-c4ccco4)n3n2)cc1	inconclusive [inhibitor, single point]	–
Cc1nc(-c2cccc(Cl)c2)n(Cc2ccc(F)c(F)c2)c(=O)c1CCO	inconclusive [inhibitor, single point]	–
O=C(O)c1cccc(CN2C(=O)/C(=C(\c3ccccc3)c3ccc(Cl)cc3)c3ccccc32)c1	inactive	–
Cn1cnc(C(=O)NC2CCN(C(=O)N3CC4CC(C3)[C@H]3CCCC(=O)N3C4)CC2)c1 (some centres not stated)	inconclusive [inhibitor, full curve, poor fit]	–

SMILES	Potency	activity change, negative = inhibition
Cc1cc2c(-c3cccnc3)nc(-c3c(C)noc3C)cc2[nH]1	inconclusive [inhibitor, single point]	–
CC1=CC(=O)c2ccccc2C1=O	inconclusive [inhibitor, full curve, poor fit]	–
O=C1CCN(C(=O)[C@@H]2CCCN2C(=O)Nc2ccc3c(c2)OCCO3)CCCCCCN1	inactive	–
Cc1ccc(-c2ccc(O)cn2)c2cccnc12	inconclusive [inhibitor, partial curve, poor fit]	–
O=C(CCn1cnnn1)N1CCCC(CCc2cccc(C(F)(F)F)c2)C1 (configuration not stated)	inconclusive [inhibitor, single point]	–
COC(=O)CNC(=O)C1CCCN(Cc2cccc(-c3cccs3)c2)C1 (configuration not stated)	inactive	–
N=C(N)N1CCc2ccccc2C1	inconclusive [inhibitor, partial curve, poor fit]	–
CC(C)CCN1CC(CN[S+](=O)([O-])c2ccccc2)C2(C1)CN(c1ccccc1)C2 (configuration not stated)	inconclusive [inhibitor, single point]	–
OC(c1ccc2c(c1)CCO2)c1nc(Nc2cccc(C(F)(F)F)c2)n[nH]1 (configuration not stated)	inconclusive [inhibitor, single point]	–
CC1CCC2(CC1)NC(=O)N(CC(=O)NCCC1=CCCCC1)C2=O (configuration not stated)	inconclusive [inhibitor, single point]	–
Cc1noc(C)c1S(=O)(=O)NCC1(COc2ccc(S(C)(=O)=O)cc2)C[C@@H](O)[C@@H](O)C1 (some centres not stated)	inactive	–
O=C(c1cc(F)cc(F)c1)N1CC(c2nnc(-c3ccncc3)o2)C2(CCOCC2)C1 (configuration not stated)	inconclusive [inhibitor, partial curve]	–
COCc1nc(C2CC(NC(=O)CN3C(=O)NC(=O)C3(C)C)C2)cc(=O)[nH]1 (configuration not stated)	inconclusive [inhibitor, full curve, poor fit]	–
CCC(C)C(=O)O[C@@H]1[C@@H](O)[C@@H](O[C@H]2O[C@H](CO)[C@@H](O)[C@H](O)[C@H]2O)O[C@H](CO)[C@H]1O (some centres not stated)	inconclusive [inhibitor, single point]	–
COc1cccc(-c2noc(NCc3cccc(Cl)c3)n2)c1OC	inactive	–
COc1ccc(Cl)cc1-n1nc(C2CC2)nc1C(C)Cn1cncn1 (configuration not stated)	inconclusive [inhibitor, single point]	–
CS(=O)(=O)N1CCC(Cc2ccc(C(N)=O)cc2)CC1	inconclusive [inhibitor, partial curve, poor fit]	–
COc1cccc(C(=O)N2CCc3nc(C4CC4)nc(-c4ccc(O)cc4)c3CC2)c1	inconclusive [inhibitor, single point]	–
Cc1ccc(-c2cc3c(=O)n(CCNC(=O)c4ccc5c(c4)OCO5)ccn3n2)c(C)c1	inactive	–
O=C(NCc1nc2ccccc2[nH]1)C1CC(=O)N(c2n[nH]c3ccccc23)C1 (configuration not stated)	inconclusive [inhibitor, single point]	–
COc1ccc(CNC(=O)[C@@]23CCCC[C@H]2N(CCC(C)C)C(=O)CC3)cc1OC	inconclusive [inhibitor, single point]	–
COc1ccc(-c2cc(N3CCCC(NC(=O)c4ccc(C)nc4)C3)n[nH]2)cc1 (configuration not stated)	inconclusive [inhibitor, partial curve, poor fit]	–
O=C(NCC1CC1)c1nc2cccnc2n(C2CCCC2)c1=O	inactive	–

SMILES	Potency	activity change, negative = inhibition
COc1ccc2cc3[n+](cc2c1OC)CCc1cc2c(cc1-3)OCO2	inconclusive [inhibitor, partial curve, poor fit]	–
CCN1CCN(C(=O)c2nc3sccn3c2-c2ccc(C)cc2)CC1	inactive	–
COc1ccc(-c2noc(CC3CCN(C(=O)c4ccccc4C)CC3)n2)cc1	inactive	–
CC[C@@H]1Cc2cc(O)ccc2C2=C1c1ccc(O)cc1C[C@H]2CC	active: 11.2 µM	–
CC1(C)OC2=C(C(=O)c3ccccc3C2=O)[C@H](NCc2ccccc2)[C@H]1O	active: 13.7 µM	–
O=C(c1ccccc1F)N1CCCC(c2nnnn2-c2ccccc2)C1 (configuration not stated)	inactive	–
Cn1ccc(Nc2nccc3c(=O)cc(-c4cn[nH]c4)oc23)n1	inactive	–
COc1ccc(N2C(=O)C3(CCCCC3)C2C(=O)NCCN2CCc3ccccc3C2)cc1 (configuration not stated)	inactive	–
COCCNC(=O)C1CCCN1Cc1ccc(-c2cc(C)cc(C)c2)cc1 (configuration not stated)	inconclusive [inhibitor, single point]	–
CCNC(=O)N1CCC[C@@H](O)[C@H](NC(=O)c2ccc(OCc3c(C)noc3C)cc2)C1	inconclusive [inhibitor, full curve, poor fit]	–
O=C(c1ccc(Cl)cc1)N1CC2(CCCN2Cc2cc(F)c(F)c(F)c2)Cc2ccccc21 (configuration not stated)	inactive	–
C=CCN(C)C(=O)[C@@H](C)C1CC[C@@]2(C)Cc3sc(NCCCC)nc3[C@@H](C)[C@@H]2[C@H]1O (some centres not stated)	inconclusive [inhibitor, single point]	–
Cn1sc(=O)n(Cc2ccccc2)c1=O	inconclusive [inhibitor, single point]	–
COCC1(CNC(=O)c2cccnc2)C[C@@H](O)[C@@H](O)C1 (some centres not stated)	inactive	–
O=C(CC[C@@H]1CNC(=O)[C@@H]2C[C@H](NC(=O)c3cccc(F)c3)CN12)NCc1cccnc1	inconclusive [inhibitor, partial curve, poor fit]	–
CS(=O)(=O)N(C1CC1)C1CCOC2(CCN(C(=O)C3(c4ccccc4)CC3)CC2)C1 (configuration not stated)	inconclusive [inhibitor, single point]	–
COc1cc(OC)c(-c2nc3ccc(-c4ccc(OC)c(OC)c4OC)cc3o2)cc1OC	inconclusive [inhibitor, partial curve]	–
Clc1ccc(-c2cnc3n2C[C@H](CNC2CCOCC2)OC3)cc1	inconclusive [inhibitor, full curve, poor fit]	–
C=C(C)[C@@H]1CC=C(COC(=O)NC(=O)c2ncn3c(=O)n(C)nnc23)CC1	inconclusive [inhibitor, single point]	–
O=C(CC1CCCC1)NC1CCCN(c2cc(N3CCCC3)ncn2)C1 (configuration not stated)	inconclusive [inhibitor, single point]	–
COc1cccc(CNC(=O)C2CN(C3CCCC3)C(=O)N2)c1 (configuration not stated)	inactive	–
